Results as given in patent US20120260922A1, “TOPICAL USE OF HYDROXYTYROSOL AND DERIVATIVES FOR THE PREVENTION OF HIV INFECTION” (priority 2009, published 2012).

Test system: R5-tropic virus (JR-Renilla)
Experiment: microbe, parasite or virus in culture
Assay type: cell-based, HIV
Text: One of the most important mechanisms of HIV infection is that mediated by the introduction of the virus through cells presenting antigen DC-SIGN+, which is called trans-infection. This mechanism was studied with a system based on cells DC-SIGN+ (RAJI DC-SIGN) that mimetizes the natural infection conditions. The target of the infection are PBMC cells from healthy donors. The results obtained with Hydroxytyrosol are show in table 1 and FIG. 4.

For `OCCc1ccc(O)c(O)c1` [Hydroxytyrosol, 4-(2-hydroxyethyl)-1,2-benzenediol], the EC50 (Human immunodeficiency virus 1, Raji) was 4.88 µM and the “inhibition of trans-infection with R5-tropic virus” value (compared with direct infection) was “more potency that in the assays with direct infection”.
